Data published in patent US12594350B2, “CD8-specific capture agents, compositions, and methods of using and making” (Regeneron Pharmaceuticals, Inc., priority 2016, dated 2026).
Bridge positions count the residues as written; N and C are the ends. Square brackets hold non-standard residues; d marks the D form. Triazole bridges read from a SMILES are 1,4-linked. Ends that are not written are not given here. Peptide text beside a SMILES is read from it. * marks the point of attachment. ξ: configuration not given here. Biotinyl(3aR,4R,6aS) = O=C1N[C@@H]2[C@@H](CS[C@@H]2CCCCC(=O)*)N1; Biotin = O=C1N[C@H]2[C@H](CS[C@H]2CCCCC(=O)*)N1; Lys(N3) = [N-]=[N+]=NCCCC[C@H](N)C(=O)O; AEEEA = NCCOCCOCCOCC(=O)O; ξR = N=C(N)NCCCC(N)C(=O)O; Pra = C#CC[C@H](N)C(=O)O

Experiments:
[1] = molecular target: His-tagged CD8α human recombinant protein (Homo sapiens, UniProt P01732); test: CD8 ELISA (affinity assay) of macrocyclic peptide ligands
His-tagged CD8α human recombinant protein, sequence (P01732 22-235): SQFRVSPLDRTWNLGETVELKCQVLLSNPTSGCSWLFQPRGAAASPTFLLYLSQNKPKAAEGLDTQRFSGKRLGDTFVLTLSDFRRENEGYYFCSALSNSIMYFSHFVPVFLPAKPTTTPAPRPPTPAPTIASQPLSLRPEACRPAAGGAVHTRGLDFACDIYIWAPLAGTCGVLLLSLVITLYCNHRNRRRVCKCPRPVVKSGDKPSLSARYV

[2] = mouse, in vivo, iv

EC50 [1] | Compound | activity in the intestine at 1-2 hours [2] | biodistribution and clearance route by PET (in words) [2]
20 nM | CC(C)C[C@H]1NC(=O)[C@@H](CO)NC(=O)[C@@H](NC(=O)COCCOCCOCCNC(=O)CCCC[C@H]2SC[C@H]3NC(=O)N[C@H]32)Cc2cn(nn2)CCCC[C@@H](C(N)=O)NC(=O)CNC(=O)[C@@H](Cc2ccccc2)NC(=O)[C@@H](CCCNC(=N)N)NC1=O [biotin-PEG3-Cy(slrfG)] ({Biotinyl(3aR,4R,6aS)-AEEEA}-[Pra][dS][dL][dR][dF]G[Lys(N3)]-NH2; triazole 1-7) |  | 
16 nM | CC(C)C[C@H]1NC(=O)[C@H]2CCCN2C(=O)[C@@H](Cc2c[nH]c3ccccc23)NC(=O)[C@@H](NC(=O)COCCOCCOCCNC(=O)CCCC[C@@H]2SC[C@@H]3NC(=O)N[C@@H]32)Cc2cn(nn2)CCCC[C@@H](C(N)=O)NC(=O)[C@@H](Cc2ccccc2)NC(=O)[C@@H](CCCNC(=N)N)NC1=O [biotin-PEG3-Cy(wplrf)] ({Biotin-AEEEA}-[Pra][dW][dP][dL][dR][dF][Lys(N3)]-NH2; triazole 1-7) |  | 
10 nM | CC(C)[C@H]1NC(=O)CNC(=O)CNC(=O)[C@@H](Cc2ccc(O)cc2)NC(=O)[C@@H](NC(=O)COCCOCCOCCNC(=O)CCCC[C@H]2SC[C@H]3NC(=O)N[C@H]32)Cc2cn(nn2)CCCC[C@@H](C(N)=O)NC(=O)C(CCCNC(=N)N)NC1=O (stereo partly drawn) [biotin-PEG3-Cy(yGGvr)] ({Biotinyl(3aR,4R,6aS)-AEEEA}-[Pra][dY]GG[dV][ξR][Lys(N3)]-NH2; triazole 1-7) |  | 
 | [^18F]FB-labeled Cy(HGRGH): macrocycle anchor Cy(HGRGH), aminooxy-derivatized and labeled with 4-[^18F]fluorobenzaldehyde (oxime) (triazole (positions not given here); not fully specified (N-terminus, C-terminus, bridges); also: exact cyclisation residues not given here) | small amount of activity in the intestine | kidney clearance to the bladder (on the order of one hour) with little liver activity
 | [^18F]FB-labeled Cy(wplrf): macrocycle anchor Cy(wplrf), aminooxy-derivatized and labeled with 4-[^18F]fluorobenzaldehyde (oxime) (WPLRF; not fully specified; cyclic; aminooxy; [18F]fluorobenzaldehyde oxime label; VARIANT (1)..(5) D-amino acid) |  | predominantly liver and intestinal uptake with some clearance to the bladder at 2 hours post-injection

Compound | EC50 [1] | activity in the intestine at 1-2 hours [2] | biodistribution and clearance route by PET (in words) [2]
CC(C)C[C@H]1NC(=O)[C@@H](CCCNC(=N)N)NC(=O)[C@@H](Cc2ccccc2)NC(=O)[C@@H](Cc2ccccc2)NC(=O)[C@@H](NC(=O)COCCOCCOCCNC(=O)CCCC[C@@H]2SC[C@@H]3NC(=O)N[C@@H]32)Cc2cn(nn2)CCCC[C@@H](C(N)=O)NC(=O)[C@@H](Cc2ccc(O)cc2)NC1=O [biotin-PEG3-Cy(ffrly)] ({Biotin-AEEEA}-[Pra][dF][dF][dR][dL][dY][Lys(N3)]-NH2; triazole 1-7) | 56 nM |  | 
CC(C)[C@H]1NC(=O)[C@@H](CC(N)=O)NC(=O)[C@@H](Cc2ccccc2)NC(=O)[C@@H](Cc2c[nH]c3ccccc23)NC(=O)[C@@H](CCCNC(=N)N)NC(=O)[C@@H](NC(=O)COCCOCCOCCNC(=O)CCCC[C@@H]2SC[C@@H]3NC(=O)N[C@@H]32)Cc2cn(nn2)CCCC[C@@H](C(N)=O)NC1=O [biotin-PEG3-Cy(rwfnv)] ({Biotin-AEEEA}-[Pra][dR][dW][dF][dN][dV][Lys(N3)]-NH2; triazole 1-7) | 62 nM |  | 
